# Laboratory results taken from patent publication US20020012979A1, “VITAMIN C PRODUCTION IN MICROORGANISMS AND PLANTS” (priority 1998, published 2002).
# What was measured:
# Strain UV77-247 [1] = test: Conversion of compounds to AA by growing cells of strain UV77-247; type: cell-based, Prototheca; details: for Ascorbic Acid, 25.5h: growing cells UV77-247, 25.5h; for Ascorbic Acid, 44h: growing cells UV77-247, 44h; for AA/A620: growing cells UV77-247, time not printed for this column
# Protocol: (§1) For secondary screening of flask cultures, cells were inoculated into 50 mL of standard flask medium in 250 mL baffled shake flasks, and incubated on a rotary shaker at 180 rpm until glucose depletion (24-48 hours). A second series of flasks of Mg-sufficient standard medium was inoculated from the first set to a cell density of 0.15 A620, and incubated for 24 hours. A third series of Mg-limiting flask medium was inoculated from the second set by a 1/50 dilution and incubated for 96 hours. Flasks were sampled for AA analysis and cell density measurements during this time as required. Aliquots for supernatant AA analysis were centrifuged at 5000×g for 5 min. Aliquots for total whole broth AA analysis were first extracted for 15 min with an equal volume of 5% trichloroacetic acid (TCA) before centrifugation. Aliquots of the resulting supernates were removed for either colorimetric assay or HPLC analysis.
# (§2) For colorimetric assay of AA, a modification of the method of Omaye, et al. (1979. Meth. Enzymol. 62:3-11) was used. Twenty-five μL aliquots of culture supernates were added to wells of 96-well microplates, and 125 μL of color reagent was added. The color reagent consisted of four parts 0.5% aqueous 2,2′-dipyridyl and one part 8.3 mM ferric ammonium sulfate in 27% (v/v) o-phosphoric acid, the two components being mixed immediately before use. After one hour, the absorbance at 520 nm was read. AA concentration was calculated by comparison of the absorbances of AA standards.
# (§3) HPLC analysis was based on that of Running, et al., (1994). Supernates were chromatographed on a Bio-Rad HPX-87H organic acid column (Bio-Rad Laboratories, Richmond, Calif.) with 13 mM nitric acid as solvent, at a flow rate of 0.7 mL/min at room temperature. Detection was at either 254 nm using a Waters 441 detector (Millipore Corp., Milford, Mass.), or at 245 nm using a Waters 481 detector. This system can distinguish between the L- and D-isomers of AA.
# (§4) Cells were washed twice and resuspended in complete medium with the glucose substituted by one of the compounds listed below. Cell suspensions were incubated for 24 hours at 35° C. with shaking, and the entire suspension was extracted with TCA as above and assayed for AA.
# Strain UV77-247 [2] = test: Conversion of compounds to AA by resting cells of strain UV77-247; type: cell-based, Prototheca; details: for Ascorbic Acid, 25.5h: resting cells UV77-247, 25.5 h; for Ascorbic Acid, 30 h: resting cells UV77-247, 30 h; for Ascorbic Acid, 47 h: resting cells UV77-247, 47 h
# Protocol: as §1, §2, §3, §4
# [3] = substrate 50 mM, resting cells UV77-247, 24 hours
# [4] = substrate 50 mM, resting cells UV77-247, 24 hours at 35° C.
# [5] = substrate 10 mM, resting cells UV77-247, 24 hours
SMILES,"Ascorbic Acid, 25.5h (Strain UV77-247 [1]) [mg/L]","Ascorbic Acid, 44h (Strain UV77-247 [1]) [mg/L]",AA/A620 (Strain UV77-247 [1]),AA Relative to No Substrate Control (Strain UV77-247 [2]; [3]),Total AA (Strain UV77-247 [2]; [4]) [mg/L],"Ascorbic Acid, 25.5h (Strain UV77-247 [2]) [mg/L]","Ascorbic Acid, 30 h (Strain UV77-247 [2]) [mg/L]","Ascorbic Acid, 47 h (Strain UV77-247 [2]) [mg/L]",AA Relative to No Substrate Control (Strain UV77-247 [2]; [5]),Total AA (Strain UV77-247 [2]; [5]) [mg/L]
O=CC[C@@H](O)[C@H](O)[C@H](O)CO [2-deoxy-D-glucose],181,227,47,,,,,,,
O=C(O)C(=O)[C@@H](O)[C@H](O)[C@H](O)CO [2-keto-D-gluconic acid],182,255,48,−1,341,,,,,
O=C(CO)[C@@H](O)[C@H](O)[C@H](O)CO [D-fructose],181,383,65,248,590,402,408,367,,
O=C[C@H](O)[C@@H](O)[C@@H](O)[C@H](O)CO [D-galactose],185,380,64,200,542,352,361,337,,
O=C(O)[C@H](O)[C@@H](O)[C@H](O)[C@H](O)CO [D-gluconic acid],178,262,52,−33,309,,,,,
O=C1O[C@H](CO)[C@@H](O)[C@H](O)[C@H]1O [D-gluconolactone],130,190,33,40,382,,,,,
O=C[C@H](O)[C@@H](O)[C@H](O)[C@H](O)CO [D-glucose],178,398,67,242,584,395,404,351,46,388
O=CC(=O)[C@@H](O)[C@H](O)[C@H](O)CO [D-glucosone],176,362,64,247,589,465,462,354,,
O=C[C@H](O)[C@H]1OC(=O)[C@@H](O)[C@H]1O [D-glucuronolactone],165,218,44,−13,329,,,,,
O=C1OC(C(O)CO)C(O)C1O [D-gulono-γ-lactone],,,,24,366,,,,,
O=C1O[C@H]([C@H](O)CO)C(O)=C1O [D-isoascorbic acid],,,,,,,,,−12,330
O=C[C@@H](O)[C@@H](O)[C@H](O)[C@H](O)CO [D-mannose],228,488,87,,,448,462,399,,
O=C1O[C@H]([C@@H](O)CO)[C@@H](O)[C@@H]1O [L-galactono-γ-lactone],214,342,68,476,818,644,681,749,,
O=C[C@@H](O)[C@H](O)[C@H](O)[C@@H](O)CO [L-galactose],249,506,112,623,965,667,718,620,,
O=C1O[C@H]([C@@H](O)CO)[C@H](O)[C@@H]1O [L-gulono-γ-lactone],152,195,39,,,,,,,
O=C(O)[C@H](O)[C@@H](O)[C@H](O)[C@@H](O)CO [L-idonate],182,232,49,−46,296,,,,,
O=CC(=O)[C@@H](O)[C@H](O)[C@@H](O)CO [L-sorbosone],178,160,34,0,342,,,,,
